From PubChem BioAssay AID624296 (National Center for Advancing Translational Sciences (NCATS), 2012)
The campaign covered roughly 350,000 compounds. About 9,900 (2.8%) were called active. The inconclusive results got no clear call from the source; some entries with a clear call stand among them for comparison. The call rests on the fitted dose curve; in most records, active means well fitted activation curve with a large enough effect; inconclusive means small, poorly fitted or top-dose-only effect; inactive means no such curve, though single readings can be large or run the other way. Potencies of inconclusive entries are left out as doubtful fits.

assay: A quantitative high throughput screen for small molecules that induce DNA re-replication in MCF 10a normal breast cells.; further: nearly all actives have a fitted effect of over 50% in size; on activity, positive = re-replication: % of control where 0% means no effect; conditions: MCF 10A DNA re-replication, Hoechst nuclear intensity, 48 h; activity, positive = re-replication: at 46.1 µM (top of the series)
Potency means the concentration at half of the fitted maximal effect; tags describe the fitted curve by direction and shape.

Which Potency does the source give for `COc1cccc(OCCN2CCN(c3ncnc4c3cnn4-c3ccccc3)CC2)c1` here?
The Potency was active: 18.4 µM.

With `COc1ccc(N2CCCC2)c(NC(=O)COc2ccccc2)c1` as the molecule, how does the Potency read?
Its Potency is inconclusive [activator, single point].

For `CCc1c(C)nc2ccc(Br)cc2c1SCCC#N`, which Potency is on record?
Its Potency is inconclusive [activator, single point].

For `Cc1ccc(NC(=O)CN(C)C(=O)COC(=O)CNS(=O)(=O)c2ccc(F)c(F)c2F)cc1`, which “activity, positive = re-replication” value is on record?
Its value is inactive: 3.28%.

For `CCCc1cc(O)c2c(C)cc(=O)oc2c1`, which Potency is on record?
The Potency was inconclusive [activator, full curve].

Which “activity, positive = re-replication” value does the source give for `COc1ccc(NC(=O)c2cccc(NC(=O)C(C)C)c2)c([N+](=O)[O-])c1` here?
Its value is inactive: -5.31%.

For `Cc1ccccc1NC(=O)c1sc2nc(N3CCOCC3)c3c(c2c1N)CCCC3`, which Potency is on record?
Its Potency is inconclusive [activator, single point].

For `Cc1ccc(SCC(=O)NC(C)c2ccccc2)cc1` (stereo not given), which Potency is on record?
Its Potency is inconclusive [activator, partial curve, poor fit].

For `O=C(CCCN1C(=O)NC2(CCCC2)C1=O)Nc1ccc(Cl)c(S(=O)(=O)N2CCOCC2)c1`, which “activity, positive = re-replication” value is on record?
The value was inactive: -5.22%.

Which “activity, positive = re-replication” value does the source give for `CCN(C(=O)CSc1cccc[n+]1[O-])c1ccccc1` here?
The value was inactive: 4.52%.

Which Potency does the source give for `O=C(NN1C(=O)/C(=C/C=C/c2ccccc2)SC1=S)c1ccncc1` here?
The Potency was active: 18.4 µM.

With `NS(=O)(=O)c1ccc(-c2ccc(/C=C3\SC(=O)NC3=O)o2)cc1` as the molecule, how does the Potency read?
Its Potency is inconclusive [activator, single point].

For `COc1ccc(C(=O)COC(=O)C2COc3ccccc3O2)cc1F` (stereo not given), which “activity, positive = re-replication” value is on record?
Its value is inactive: 2.19%.

With `C/C(CC(=O)Nc1ccc(Cl)cc1C(F)(F)F)=N\NC(N)=S` as the molecule, how does the Potency read?
Its Potency is inconclusive [activator, partial curve, poor fit].

For `CC(=O)NC1=C(N(C)C2CCS(=O)(=O)C2)C(=O)c2ccccc2C1=O` (stereo not given), which Potency is on record?
The Potency was inconclusive [activator, full curve].

Which Potency does the source give for `O=C(O)CCCn1cc(NC(=O)c2cc(F)c(F)cc2Cl)cn1` here?
The Potency was inconclusive [activator, single point].

With `O=c1c2ccccc2nc(SCc2nc3ccccc3s2)n1CCCO` as the molecule, how does the Potency read?
Its Potency is inconclusive [activator, partial curve, poor fit].

With `CCOC(=O)c1c(C)[nH]c(C(=O)C(C)OC(=O)c2ccc(NC(=O)CC#N)cc2)c1C` (stereo not given) as the molecule, how does the “activity, positive = re-replication” value read?
Its value is inactive: 5.94%.

For `CC(C)CSC1=NSC2=NC(=O)/C(=C\c3cccs3)C(=N)N12`, which Potency is on record?
The Potency was active: 20.6 µM.

Which activity, positive = re-replication does the source give for `COc1ccc(S(=O)(=O)N(CC(=O)NN=C2CCN(C)CC2)c2cc(Cl)ccc2OC)cc1OC` here?
The activity, positive = re-replication was inconclusive: -21.8% [activator].

Which “activity, positive = re-replication” value does the source give for `C=CCn1c(SCc2ccc(C#N)cc2)nnc1-c1cccc(OC)c1` here?
Its value is inactive: -0.764%.

For `CC(C)C(=O)Nc1cccc(-c2csc(-c3ccccc3)n2)c1`, which Potency is on record?
The Potency was inconclusive [activator, single point].

With `Cc1nn(Cc2ccc(F)cc2)c(C)c1NC(=O)c1cc(-c2ccco2)on1` as the molecule, how does the Potency read?
The Potency was inconclusive [activator, single point].

With `CCOc1cc(-c2cc(-c3ccc(NC(C)=O)cc3)nc(N)c2C#N)ccc1O` as the molecule, how does the Potency read?
Its Potency is active: 18.4 µM.

With `CCCCNC(=NCc1cccc(C(F)(F)F)c1)Nc1ccccc1` as the molecule, how does the Potency read?
The Potency was inconclusive [activator, partial curve, poor fit].

For `Clc1ccc(NNc2ccnc3cc(Cl)ccc23)cc1`, which Potency is on record?
The Potency was inconclusive [activator, partial curve, poor fit].

Which Potency does the source give for `O=C(CSc1nc(-c2ccccc2)c(-c2ccccc2)o1)N1CCOCC1` here?
The Potency was active: 16.4 µM.

Which “activity, positive = re-replication” value does the source give for `CN(Cc1nc(-c2ccc(Cl)cc2)no1)C(=O)c1ccc2c(c1)OCO2` here?
The value was inactive: 0.845%.

For `COc1cccc(C(=O)NC2C(=O)N3C(C(=O)O)=C(COC(C)=O)CSC23)c1` (stereo not given), which Potency is on record?
Its Potency is inconclusive [activator, partial curve].

Which Potency does the source give for `Cc1c(C(=O)OC/C(O)=C(\C#N)c2nc3ccccc3[nH]2)oc2ccccc12` here?
The Potency was active: 14.6 µM.

For `COc1ccc(Oc2nnc(-c3ccc(C)cc3)c3ccccc23)cc1`, which Potency is on record?
The Potency was inconclusive [activator, single point].

With `COC(=O)CCc1nc2cc(Cl)ccc2n(Cc2ccccc2)c1=O` as the molecule, how does the Potency read?
Its Potency is inconclusive [activator, single point].

Which Potency does the source give for `CN1CCC(OC(=O)c2ccc(Cl)cc2Cl)CC1` here?
The Potency was inconclusive [activator, partial curve, poor fit].

For `OC(CSc1c(Cl)cccc1Cl)CN1CCN(c2ccccc2F)CC1` (stereo not given), which Potency is on record?
The Potency was inconclusive [activator, partial curve, poor fit].

Which “activity, positive = re-replication” value does the source give for `CCc1nc(SCC(=O)Nc2ccc(OC)cc2[N+](=O)[O-])n[nH]1` here?
Its value is inactive: 0.888%.

Which Potency does the source give for `Cc1ccc(Oc2nc(-c3ccccn3)nc3ccccc23)cc1` here?
The Potency was inconclusive [activator, single point].

Which “activity, positive = re-replication” value does the source give for `COc1ccc(-c2cc(C(F)(F)F)c(C#N)c(SCC(=O)O)n2)cc1` here?
The value was inactive: -5.79%.

For `O=S(=O)(Nc1ccc(Cc2ccncc2)cc1)c1ccc(Cl)s1`, which Potency is on record?
The Potency was inconclusive [activator, full curve, poor fit].

With `COc1cccc(C(=O)Nc2nc3c(c(=O)[nH]2)CCCC3)c1` as the molecule, how does the Potency read?
The Potency was inconclusive [activator, single point].

For `CCN(CC)S(=O)(=O)c1ccc(OC)c(NC(=S)Nc2ccc(C)c(C)c2)c1`, which Potency is on record?
Its Potency is inconclusive [activator, full curve, poor fit].

For `O=C(Nc1sc2c(c1C(=O)NC1CCCCC1)CCC2)c1ccco1`, which “activity, positive = re-replication” value is on record?
Its value is inactive: 20%.

For `Cc1ccc(S(=O)(=O)CCC(=O)c2ccc(O)cc2O)cc1`, which Potency is on record?
The Potency was active: 18.4 µM.

Which Potency does the source give for `CC(=O)c1c(C)[nH]c(C(=O)COc2ccc3c(C)cc(=O)oc3c2)c1C` here?
The Potency was inconclusive [activator, single point].

Which Potency does the source give for `Cc1cc(C(=O)NNc2ccc(C)c(C)c2)no1` here?
Its Potency is active: 16.4 µM.

Which Potency does the source give for `COc1ccc(/C=c2\s/c(=C(/C#N)C(=O)NCc3ccco3)n(-c3ccccc3)c2=O)cc1` here?
Its Potency is inconclusive [activator, full curve, poor fit].
